# Results: the RNAGym collection of RNA variant scans (doi:10.7554/elife.90254)
# Read counts are not given, so values of variants with three or more changes are uncertain.
# B1: LINE1-mini (parent)
# chain: GGCAGAGCUCAACACAGCGUGGCAAAGUGGCUGUGGCUAGACUGCC
# Variants of: B1
# Test: self-cleavage, relative activity (ratio to wild type); higher = more cleavage; in vitro, sequencing; the parent is a self-cleaving ribozyme
row,Variant,self-cleavage
1,GGCUGAGUUAAACACAGCGUGGCAAAGUGGCUGUGGCUAGACUGCU,0.05
2,GGCUGAGUUCAACACAGCGUGGCAAAGUGGGUGUGGCUAGACUGCC,0.12
3,GGCUGAGUUCAACACAGCGUGGCAAAGUGGCUGUGGCUAGACUGCA,0.11
4,GGCUGAGCUAGACACAGCGUGGCUAAGCGGCAUUGGCUACACUGCC,0.02
5,GGCUGAGCUAAACCCAGCGUGGCACAGUGGCUGUGGCUAGAAUGCC,0.01
6,GGCUGAGCUAAACACAGCGUGGCAAAGUGGCUGUGGCUAGAUAGCC,0
7,GGCUGAGCUAAACACAGCCUGGCAAAGUGGCUGUGGCUAGACUGCC,0.02
8,GGCUGAGCUAAACACAGCGUGAGAAAUUGGCGGUGGCUAGACUGCC,0.03
9,GGCUGAGCUAAACACAGCGUGUCAAAGUGGCUGUGGCUAGACUGCU,0.03
10,GGCUGAGCUAAACACAGCGUGGCAAAGUGCCUGUGGCUAGACUGCC,0.05
11,GGCUGAGCUAAACACAGCGUGGCAAAGUGGCUGUGGCUAAACUGCC,0.02
12,GGCUGAGCUGAUCACAGCGUGGCAAUGUGCCUGUGGUUAGACUGCC,0.02
13,GGCUGAGCUUAACACAGCGUGGCAAAGUGGCUGUGGCUAGACUGCG,0.12
14,GGCUGAGCUCAAAACAGCGUGGCAAAGUGGCUGUGGCUAGCCUGCC,0.02
15,GGCUGAGCUCAAAACAGCGUGGCAAAGUGGCUGUGGCUAGACUGCU,0.1
16,GGCUGAGCUCAAAACAGCGAGGCAAAGUGGCUGUGGCUAGACUGCC,0.03
17,GGCUGAGCUCAAAACAGCGUGGCAAAGUGGCUGUGGCCAGACUGCC,0.02
18,GGCUGAGCUCAAGACAGCAUGUCAAACUGGCUAUGGCUAGACUGCC,0.59
19,GGCUGAGCUCAAUACAGCGUGGCAAAGUGGCUGUGGCUAGACUGCA,0.06
20,GGCUGAGCUCAAUACACCGUGGCAAAGUGGCUGUGCCUCGAAUGCC,0.06
21,GGCUGAGCUCAAUACAGCGUGGCAAAGUAGCUGUGGCUAGACUGCC,0.04
22,GGCUGAGCUCAAUACAGCGUGGCAAAGUGGCUGUAGCUAGACUGCC,0.27
23,GGCUGAGCUCAAUACAGCGUGGCAAAGUGGCUGUGGCUAGACUCCC,0.14

row,Variant,self-cleavage
1,GGCUGAGCUCAAUACAGCGUGGCAAAGUGGCUGGGGCUAGACUGCC,0.02
2,GGCUGAGCUCAACAAAGUGUGGCAAAGUGGCUGUGACUGGACUGCC,0.04
3,GGCUGAGCUCAACAAAGCGCGGCAAAGUGGCUGUGGCUAUACUACC,0.01
4,GGCUGAGCUCAACAAAGCGUGGCAAAGUGGCUGAGGCUAGACUGCC,0.08
5,GGCUGAGCUCAACAGAGCGUGGAAAAGUGGCUAUGGCUAGACUGCC,0.01
6,GGCUGAGCUCAACAGAGCGCGGCAAAGUGGCUGUGGCUAGACUGCC,0.02
7,GGCUGAGCUCAACAUAGCGUGGCAAAGUGGCUGUGGCUAGGCUGCC,0.05
8,GGCUGAGCUCAACAUAGCGUGGCAAAGUGGCUGUGGCUAGAUUGCA,0.2
9,GGCUGAGCUCAACAUAACGUGGCAAAGUGGCCGUGGCUAGACUGCC,0.08
10,GGCUGAGCUCAACAUAGCCCGGCAAAGUGGCUGUGGCUAGAUUGCC,0.15
11,GGCUGAGCUCAACAUAGCGUGUCAAAGUGGCUGGGGCUAGACUGCC,0.06
12,GGCUGAGCUCAACAUAGCGUGGCAAAGUGGCUGUAGCUAAACUGCC,0.02
13,GGCUGAGCUCAACACAGAGUGGUAAAGUGGCUGUGGCUAGACUGCC,0.02
14,GGCUGAGCUCAACACAGAGUGGCAAAGUGGCUGUGGCUAGACUGCG,0.16
15,GGCUGAGCUCAACACAGGGUGCCAAAGUGGCUGUUGCUAGACUGCC,0.04
16,GGCUGAGCUCAACACAGGGUGGCAAAGUGCCUGUGGCUAGACCUCC,0.06
17,GGCUGAGCUCAACACAGGGGGGCAGAGUGGCUGUGGCUAGACUGCC,0.11
18,GGCUGAGCUCAACACAGUGUGGCAAAGUGGCUGUGGCUAGCUUGCC,0.06
19,GGCUGAGCUCAACACAGUGCGGCAAAGUGGCUGUUGCUAGAAUGCC,0.05
20,GGCUGAGCUCAACACAGCGUGGUAAAGUGGUUGUGGCUAGACUGCC,0.14
21,GGCUGAGCUCAACACAGCGUGGUAAAGUGGCUGUUGCUAGACUGCC,0.17
22,GGCUGAGCUCAACACAGCGUGGCAAAGUGGUUGUGGCUAGACUGAC,0.01
23,GGCUGAGCUCAACACAGCGUGGCAAAGUGGUUGUGGCUAGACUGUC,0.03

row,Variant,self-cleavage
1,GGCUGAGCUCAACACAGCGUGGCAAAGUGGCUGUGGGGAGACUGCC,0.03
2,GGCUAAGCUCAACACAGUGUGGUAAAGUGGCUAUGGCUAGACUGUC,0.06
3,GGCUAAGCUCAACACAGCGUGGCAAAGUGGCGGUGGUCAGACUGCC,0.05
4,GGCUCCGCUCAACACAGCGUGGCAAAGUGGCUGUAGCUAGACUGCC,0.04
5,GGCUCAGCUCAACACAGCGUGGCAGAGUGACUGUGACUAGACUGCC,0.05
6,GGCUCAGCUCAACACAGGGUGGCAAAGUGGCUGUGGCUAGACUGCC,0.02
7,GGCUCAACUCAACACAGCGUGGCAAAGUGGCUGUGGCUAGACUGCC,0.2
8,GGCUCACCUCAACGAAGCGUGGAAAAGUGGCUGUGGCUAGACUACC,0.04
9,GGCUCAGCUCAACACAGCGUGGCAAAGGGGCUGUGGCUAGACUGCC,0.31
10,GGCUUAGCUCAGCACAGCGUGGCUAAGUGGCUGUGGCUAUAAUGCC,0.03
11,GGCUUAGCUCAACACAGCGUGGCAAAGUGGCUGUGGCUAGUCUGAC,0.47
12,GGCUUAGCUAAACGCAGCGUGGCUAAGUGGCUGUGGCUAGACUGCC,0.05
13,GGCUUAGCUGAACACAGCGUGGCAAAGUUGCUGUGGCUUCAGUGCC,0.02
14,GGCUUAGCUCAACACAGCGUUGCAAAGUGGCUGUGGCUAGACUGCC,0.1
15,GGCUUAGCUCAACACAGCGUGGCAAAGUGGCUGUGGCUAAACUGCC,0.15
16,GGCUUAGCACAACACAGCGUGACAAAGUGGCUGUGGCUAGACUGCC,0.25
17,GGCUUAGCCCAACACAGCGUGGCAAAGUGGCUGCGGCUAGACUGCC,0.05
18,GGCUGAACUCAACACAGCGUGGCAAAGUGGCUGUGGCUAGACUGCU,0.08
19,GGCUGACCUCAACACAGCCUGGCAAAGUGGCUGUGGCUAGACUGCC,0.03
20,GGCUGACCUCAACACAGCGUGACAAAGUGGCUGUGGCUAGACUGCC,0
21,GGCUGACCUCAACACAGCGUGACAAAGUGGCUGUGGCUAGACGGCC,0.07
22,GGCUGACCUCAACACAGCGUGCCAAAGUGGCUGUGGCUAAACUGCC,0.03
23,GGCUGAUCUCAACACAGCGUGGCAGCGUGGCUGUGGCUAGACUGCC,0.17

row,Variant,self-cleavage
1,GGCUGAUCUGAACACAGCGUGGCAAAGUGGCUGUGGCUAGACUGCC,0.04
2,GGCUGAUCUCAACAAAGCGUGGCAGAGUGGCUGUGACUAGACUGCC,0.08
3,GGCUGAUCUCAACAUAGUGUGGCAAAGUGGCUGUAGCUAGACUGCC,0.05
4,GGCUGAUCUCAACACAGCGUGACAAAGUGGCUGUGGCUAGACUGCC,0.13
5,GGCUGAUCUCAACACAGCGUGCCAACGUGGCUGUGGCUAGACUGCC,0.67
6,GGCUGAUCUCAACACAGCGUGGCAAAGUGUCUGUGGCAAGACUGCC,0.39
7,GGCUGAUCUCAACACAGCGUGGCAAAGUGGCUGUGGCUAGACAGCC,0.12
8,GGCUGAGCUCAACACAACGUGGCGAAGUGGAAGUGGCUAGACUGCC,0.03
9,GGCUGAGCUCAACACAACGGGGCAAAGUGGCGGUGGCUAGACUGCC,0.06
10,GGCUGAGCUCAACACAACGUGGCAAAGUGGCACUAGCUAGACUGCC,0.04
11,GGCUGAGCUCAACACACCGUGGAAAAGUGGCUGUGGCUAGACUGCC,0.15
12,GGCUGAGCUCAACACACCGUGGCAAAGUGGCUGUGGCUACACUGCC,0.07
13,GGCUGAGCUCAACACAUCGUGGCAAUGUGGCUGUGGCUAGACGGCC,0.03
14,GGCUGAGCUCAACACAUCGUAGCAAAGUGGCUGUGGCUAGACUGCC,0.09
15,GGCUGAGCUCAACACAUCGUGGCAAAGAGGCUGUGGCUAGACUGCC,0.07
16,GGCUGAGCUCAACACAGCAUGGCAAAGUGGCUGUGGCUGGACUGCC,0.14
17,GGCUGAGCUCAACACAGCAUGGAAAAGUGGAUGUGGCUAGACUGCC,0.06
18,GGCUGAGCUCAACACAGCAGGGCAAAGUGACUGUGGCUAGCCUGCC,0.02
19,GGCUGAGCUCAACACAGCUUGGCAAAGUGGCUGUAGCCAGACUGCC,0.01
20,GGCUGAGCUCAACACAGCUGGGAAAAGUGGCUUUGGCUAGACUGCC,0.01
21,GGCUGAGCUCAACACAGCUUGGCAAAGUGGCGAUGGAUAGACUUCC,0.02
22,GGCUGAGCUCAACACAGCGUCGCAACGUGGCUCUGGCAAGACUGCC,0.03
23,GGCUGAGCUCAACACAGCGUUGGAAAGUGGCUGUGGCUAGACUGCC,0.28

row,Variant,self-cleavage
1,GGCUGAGCUCAACACAGCGUUGCAAAGUGGCUGUGGUUAGACUGCC,0
2,GGCUGAGCUCAACACAGCGUGACAAUGUGGCUGUGGCUAGAGUGAC,0.01
3,GGCUGAGCUCAACACAGCGUGACAAAGUGGCUGUGGCUAGACAGCC,0.47
4,GGCUGAGCUCAACACAGCGUGCCAAAGUGGCUGUGGCUAGACUGCA,0.07
5,GGCUGAGCUCAACACAGCGUGUACAAGUGCCUGUGGCUAGACUGCC,0.41
6,GGCUGAGCUCAACACAGCGUGUCAAAGUGGCUGUGUCUAUACUGCC,0.3
7,GGCUGAGCUCAACACAGCGUGUCAAAGCUGCUGUGGCUAGACUGCC,0.09
8,GGCUGAGCUCAACACAGCGUGGCAAAAUGGCUGUGGUUAGACUGCC,0.01
9,GGCUGAGCUCAACACAGCGUGGCAAAAUAGCUGUGGCUCGACUGCC,0.02
10,GGCUGAGCUCAACACAGCGUGGCAAACUUGCUGUGUCUAGACUGCC,0.09
11,GGCUGAGCUCAACACAGCGUGGCAAACUGCCUGUGGGUAGACUGCC,0.08
12,GGCUGAGCUCAACACAGCGUGGCAAAUUGGAUAUGGUUAGACUGCC,0.03
13,GGCUGAGCUCAACACAGCGUGGCAAAGUAGCUGUGGCCAGACUGCC,0.16
14,GGCUGAGCUCAACACAGCGUGGCAAAGUUGCUGUGGCGAGACUGCC,0.04
15,GGCUGAGCUCAACACAGCGUGGCAAAGUGACUGUGGCUCGACUGCC,0.12
16,GGCUGAGCUCAACACAGCGUGGCAAAGUGUCUGUAGCUAGACUGUC,0.03
17,GGCUGAGCUCAACACAGCGUGGCAAAGUGGCUAUGGGUAGACUGCC,0.06
18,GGCUGAGCUCAACACAGCGUGGCAAAGUGGCUUUGGCUAUACUGCC,0.13
19,GGCUGAGCUCAACACAGCGUGGCAAAGUGGCUGUAGCUAGACUACC,0.07
20,GGCUGAGCUCAACACAGCGUGGCAAAGUGGCUGUCGCUCGAUUGCC,0.14
